Measurements from the RNAGym collection of RNA variant scans (doi:10.7554/elife.90254).
Read counts are not given, so values of variants with three or more changes are uncertain.

B1: LINE1-full (parent)
chain: UACGUAGGUGGUUUUCCCCUGAUAGUGCUAAGGGGGCCUGGAAGUUUGGACUGGGCAGAGCUCAACACAGCGUGGCAAAGUGGCUGUGGCUAGACUGCCUCUCUGGAUUCCUCGUCACUCAGCAGGGCAUCUCUGAGAGAAAUGCC

Variants of: B1
Assay: self-cleavage, relative activity (ratio to wild type); higher = more cleavage; in vitro, sequencing; the parent is a self-cleaving ribozyme

Q: With UACGUAGGUGGUUUUCCCCUGAUAGUGCUAAGGGGGCCUGUAAGUUUGGACAGGGCAGAGCUCAGCACAGCGUGGCAAAGUGGCUGUGGCUAGACUGCCUCUCUGGAUUCCUCGUCACUCAGCAGGGCAUCUCUGGGAGAAAUGCC as the variant, how does the self-cleavage read?
A: The self-cleavage was 0.05.

Q: Which self-cleavage does the source give for UACGUAGGUGGUUUUCCCCUGAUAGUGCUAAGGGGGCCUGUAAGUUUGGACUGGGCAGAGCUCAACACAGCGUGGCAAAGUGGCGGUGGCUAGACUGCCUCUCUGGAUUCCUCGUCACUCAGCAGGGCACCUCUGAGAGAAAUGCC here?
A: Its self-cleavage is 0.07.

Q: Which self-cleavage does the source give for UACGUAGGUGGUUUUCCCCUGAUAGUGCUAAGGGGGCCUGUAAGUUUGGACUGGGCAGAGCUCAACACAGCGUGGCAAAGUGGCUGUGGCUAGACUGCCUCUCUGGAAUCCUCGUCACUCAGCAGGGCAUCUCUGAGAGAAAAGCC here?
A: Its self-cleavage is 1.63.

Q: With UACGUAGGUGGUUUUCCCCUGAUAGUGCUAAGGGGGCCUGGGGGUUUGGACUGGGCAGAGCUCAACACGGCGUGGCAAAGUGGCUGUGGCUAGACUGCCUCUCUGGAUUCCUCGUCACUCAGCAGGGCAUCUCUGAGAGAAAUGCC as the variant, how does the self-cleavage read?
A: The self-cleavage was 0.77.

Q: With UACGUAGGUGGUUUUCCCCUGAUAGUGCUAAGGGGGCCUGGGGGUUUGGACUGGGCAGAGCUCAACACAGCGUGGCAAAGUGGCUGUGGCUUGACUGCCUCUCUGGACUCCUCGUCACUCAGCAGGGCAUCUCUGAGAGAAAUGCC as the variant, how does the self-cleavage read?
A: Its self-cleavage is 1.02.

Q: Which self-cleavage does the source give for UACGUAGGUGGUUUUCCCCUGAUAGUGCUAAGGGGGCCUGGGGGUUUGGACUGGGCAGAGCUCAACACAGCGUGGCAAAGUGGCUGUGGCUAGACUGCCUCUCUGGAUUCCUCGUCACUCAGCAGGGCAUCUCCGAGAGAAAUGCC here?
A: Its self-cleavage is 1.72.

Q: Which self-cleavage does the source give for UACGUAGGUGGUUUUCCCCUGAUAGUGCUAAGGGGGCCUGGGUGUUUGGACUGGGCAGAGCUCAACACAGCGUGGCAAAGUGGCUGUGGCUAGACUGCCUCUCUGGAUUCCUCGUCACUCAGCAGGGCAUCUCUGAGAGAAGUGCC here?
A: The self-cleavage was 1.67.

Q: With UACGUAGGUGGUUUUCCCCUGAUAGUGCUAAGGGGGCCUGGGAGUUUGGGCCGGGUAGAGCUCAACACAGCGUGGCAGAGUGGCAGUGGCUAGACUGCCUCUCUGGAUUCCUCGUCACUCAGCAGGGCAUCUCUGGGAGAAAUGCC as the variant, how does the self-cleavage read?
A: The self-cleavage was 0.08.

Q: Which self-cleavage does the source give for UACGUAGGUGGUUUUCCCCUGAUAGUGCUAAGGGGGCCUGGGAGUUUGGGCUGGGCAGAGCUCAACACAGCGUGGCAAAGUGGCUGUGGCUAGACUGCCUCUCUGGAUUCCUCGUCACUCAGCAGGGCAUCUCUGAGAGAAAAGCC here?
A: The self-cleavage was 0.92.

Q: With UACGUAGGUGGUUUUCCCCUGAUAGUGCUAAGGGGGCCUGGGAGUUUGGACUGGGCGGAGCUCAACACAGCGUGGCAAAGUGGCUGUGGCUAGACUGCCUCUCUGGAUUCCUCGUCACUCAGCAGGGCAUCUCUGAGAGGAAUGCU as the variant, how does the self-cleavage read?
A: The self-cleavage was 0.69.

Q: For UACGUAGGUGGUUUUCCCCUGAUAGUGCUAAGGGGGCCUGGGAGUUUGGACUGGGCGGAGCACAACACAGCGUGGCAAAGUGGCUGUGGCUAGACUGCCUCUCUGGAUUCCUCGUCACUCAGCAGGGCAUCUCUGAGAGAAAUGCC, which self-cleavage is on record?
A: Its self-cleavage is 0.05.

Q: Which self-cleavage does the source give for UACGUAGGUGGUUUUCCCCUGAUAGUGCUAAGGGGGCCUGGGAGUUUGGACUGGGCUGAGCUCAACACAGCGUGGCAAAGUGGCUGUGGCUAGACUGCCUCUCUGGAUUCCUCGUCGCUCAGCAGGGCAUCUCUGAGAGAAAUGCC here?
A: The self-cleavage was 0.08.

Q: For UACGUAGGUGGUUUUCCCCUGAUAGUGCUAAGGGGGCCUGGGAGUUUGGACUGGGCAGGGCUCAACACAGCGUGGCGAAGUGGCUGUGGCUAGACUGCCUCUCUGGAUUCCUCGUCACUCAGCAGGGCAUCUCUGAGAGAAAUGCC, which self-cleavage is on record?
A: The self-cleavage was 0.

Q: With UACGUAGGUGGUUUUCCCCUGAUAGUGCUAAGGGGGCCUGGGAGUUUGGACUGGGCAGGGCCCAACACAGCGUGGCAAAGUGGCUGUGGCUAGACUGCCUCUCUGGAUUCCUCGUCACUCAGCAGGGCAUCUCUGAGUGAAAUGAC as the variant, how does the self-cleavage read?
A: The self-cleavage was 0.

Q: For UACGUAGGUGGUUUUCCCCUGAUAGUGCUAAGGGGGCCUGGGAGUUUGGACUGGGCAGGGCUCAACACAGCGUGGCAAAGUGGCUGUGGCUAGACUGCCUCUCUGGACUCCUCGUCACUCAGCAGGGCAUCUCUGGGAGAAAUGCC, which self-cleavage is on record?
A: The self-cleavage was 0.37.

Q: Which self-cleavage does the source give for UACGUAGGUGGUUUUCCCCUGAUAGUGCUAAGGGGGCCUGGGAGUUUGGACUGGGCAGAGCUCGACACAGCGUGGCAAAGUGGCUGUGGCUAGACUGCCUCUCUGGAUUCCUCGUCACUCGGCAGGGCAUCUCUGAGAGAAAAGCC here?
A: The self-cleavage was 0.

Q: Which self-cleavage does the source give for UACGUAGGUGGUUUUCCCCUGAUAGUGCUAAGGGGGCCUGGGAGUUUGGACUGGGCAGAGCUCGACACAGCGUGGCAAAGUGGCUGUGGCUAGACUGCCUCUCUGGAUUCCUCGUCACUCAGCAGUGCAUCUCUGAGAGAAAUGCC here?
A: The self-cleavage was 0.28.

Q: For UACGUAGGUGGUUUUCCCCUGAUAGUGCUAAGGGGGCCUGGGAGUUUGGACUGGGCAGAGCUCGACACAGCGUGGCAAAGAGGCUGAGGCUAGACUGCCUCUCUGGAUUCCUCGUCACUCAGCAGGGCAUCUCUGGGAGAAAUGCC, which self-cleavage is on record?
A: Its self-cleavage is 0.15.

Q: Which self-cleavage does the source give for UACGUAGGUGGUUUUCCCCUGAUAGUGCUAAGGGGGCCUGGGAGUUUGGACUGGGCAGAGCUCGACACAGCGUGGCAAAGUGGCUGAGGCUAGACUGCCUCUCUGGAUUCCUCGUCACUCAGCAGGGCAUCUCUGAGAGGAAUGCC here?
A: The self-cleavage was 0.

Q: With UACGUAGGUGGUUUUCCCCUGAUAGUGCUAAGGGGGCCUGGGAGUUUGGACUGGGCAGAGCUCGACACAGCGUGGCAAAGUGGCUGUGGCUAGACAGCCUCUCUGGAUUCCUCGUCACUCAGCAGGGCAAUUCUGAGAGAAAUGCC as the variant, how does the self-cleavage read?
A: The self-cleavage was 0.06.

Q: For UACGUAGGUGGUUUUCCCCUGAUAGUGCUAAGGGGGCCUGGGAGUUUGGACUGGGCAGAGCUCGACACAGCGUGGCAAAGUGGCUGUGGCUAGACUGCCUCUCUGGAUUCCUCGUCACUCAGCAGGGCAUCCCUGAGAGAAAAGCC, which self-cleavage is on record?
A: The self-cleavage was 0.29.

Q: For UACGUAGGUGGUUUUCCCCUGAUAGUGCUAAGGGGGCCUGGGAGUUUGGACUGGGCAGAGCUCUACACAGCGUGGCAAAGUGGCUGUGACUAGACUGCCUCUCUGGAUUCCUCGUCACUCAGCAGGGCAUCUCUGAGAGAAAUGCC, which self-cleavage is on record?
A: The self-cleavage was 0.05.

Q: For UACGUAGGUGGUUUUCCCCUGAUAGUGCUAAGGGGGCCUGGGAGUUUGGACUGGGCAGAGCUCUACACAGCGUGGCAAAGUGGCUGUGGCUAGACAGCCUCUCUGGAUUCCUCGUCACUCAGCAGGGCAUCUCUGAGAGAAAUGCC, which self-cleavage is on record?
A: The self-cleavage was 0.05.

Q: Which self-cleavage does the source give for UACGUAGGUGGUUUUCCCCUGAUAGUGCUAAGGGGGCCUGGGAGUUUGGACUGGGCAGAGCUCUACACAGCGUGGCAAAGUGGCUGUGGCUAGACUGCCUCUCUGGAUUCCUCGCCACUCAGCAGGGCAUCCCUGAGAGAAAUGCC here?
A: Its self-cleavage is 0.68.

Q: For UACGUAGGUGGUUUUCCCCUGAUAGUGCUAAGGGGGCCUGGGAGUUUGGACUGGGCAGAGCUCAGCACAGCGUGGCGAAGUGGCUGUGGCUAGACUGCCUCUCUGGAUUCCUCGUCACUCAGCAGGGCAUCUCUGGGAGAAAUGCC, which self-cleavage is on record?
A: The self-cleavage was 0.

Q: For UACGUAGGUGGUUUUCCCCUGAUAGUGCUAAGGGGGCCUGGGAGUUUGGACUGGGCAGAGCUCAGCACAGCGUGGCAAAGUGGCUGUGGCUAGACUGCCUCUCUGGAUUCCUCGUCACUCAGCGGGGCAUCUCUGAGAGAAAUGCC, which self-cleavage is on record?
A: Its self-cleavage is 0.

Q: Which self-cleavage does the source give for UACGUAGGUGGUUUUCCCCUGAUAGUGCUAAGGGGGCCUGGGAGUUUGGACUGGGCAGAGCUCAGCACAGCGUGGCAAAGUGGCUGUGGCUAGACUGCCUCUCUGGAUUCCUCGUCACUCAGCAGGGCAUCUCUGAGGGAAAUGCC here?
A: Its self-cleavage is 0.11.

Q: For UACGUAGGUGGUUUUCCCCUGAUAGUGCUAAGGGGGCCUGGGAGUUUGGACUGGGCAGAGCUCAGCACAGCGUGGCAAAGUGGCUGUGGCUAGACUGCCUCUCUGGAUUCCUCGUCACUCAGCAGGGCAUCUCUGAUAGAAAUGCC, which self-cleavage is on record?
A: The self-cleavage was 0.18.

Q: With UACGUAGGUGGUUUUCCCCUGAUAGUGCUAAGGGGGCCUGGGAGUUUGGACUGGGCAGAGCUCAGCACAGCGUGGCAAAGUGGCUGUGGCUAGACUGCCUCUCUGGAUUCCUCGCCACUCAGCAGGGCAUCUCUGAGAGAAAUGCC as the variant, how does the self-cleavage read?
A: The self-cleavage was 0.

Q: With UACGUAGGUGGUUUUCCCCUGAUAGUGCUAAGGGGGCCUGGGAGUUUGGACUGGGCAGAGCUCAACGCAGCGUGGCAAAGUGGCUGUGGCUAGACUGCCUCUCUGGAUUCCUCGUCACUCAGCAGGGCAUCUCUGAGAGAAGUGCC as the variant, how does the self-cleavage read?
A: Its self-cleavage is 0.63.

Q: For UACGUAGGUGGUUUUCCCCUGAUAGUGCUAAGGGGGCCUGGGAGUUUGGACUGGGCAGAGCUCAACGCAGCGUGGCAAAGUGGCUGUGGCUAGACUGCAUCUCUGGAUUCCUCGCCACUCAGCAGGGCAUCUCUGAGAGAAAUGCC, which self-cleavage is on record?
A: The self-cleavage was 0.

Q: With UACGUAGGUGGUUUUCCCCUGAUAGUGCUAAGGGGGCCUGGGAGUUUGGACUGGGCAGAGCUCAACUCAGCGUGGCGAAGUGGCUGUGGCUAGUCUGCCUCUCUGGAUUCCUCGUCACUCAGCAGGGCAUCUCUGAGAGAAAUGCC as the variant, how does the self-cleavage read?
A: The self-cleavage was 0.13.

Q: With UACGUAGGUGGUUUUCCCCUGAUAGUGCUAAGGGGGCCUGGGAGUUUGGACUGGGCAGAGCUCAACUCAGCGUGGCAAAGUGGCUGUGGCUAGACUGCCUCUCUGGAUUCCUCGUCACUCAGCGGGGCAUCUCUGAGAGAAGUGCC as the variant, how does the self-cleavage read?
A: The self-cleavage was 0.18.

Q: Which self-cleavage does the source give for UACGUAGGUGGUUUUCCCCUGAUAGUGCUAAGGGGGCCUGGGAGUUUGGACUGGGCAGAGCUCAACUCAGCGUGGCAAAGUGGCUGUGGCUAGACUGCCUCUCUGGAUUCCUCGUCACUCAGCAAGGCAUCUCUGAGAGAAAUGCC here?
A: The self-cleavage was 0.2.

Q: With UACGUAGGUGGUUUUCCCCUGAUAGUGCUAAGGGGGCCUGGGAGUUUGGACUGGGCAGAGCUCAACACUGCGUGGCAAAGUGGCUGUGGCUAGACUGCCUCUCUGGAUUCCCCGUCACUCAGCAGGGCAUCUCUGAGAGAAAUGCC as the variant, how does the self-cleavage read?
A: Its self-cleavage is 0.05.

Q: Which self-cleavage does the source give for UACGUAGGUGGUUUUCCCCUGAUAGUGCUAAGGGGGCCUGGGAGUUUGGACUGGGCAGAGCUCAACACAGCGUGGCGAAGUGGCUGUGGCUAGGCUGCCUCUCUGGAUUCCUCGUCACUCAGCAGGGCAUCUCUGAGAGAAAUGCC here?
A: Its self-cleavage is 1.72.

Q: With UACGUAGGUGGUUUUCCCCUGAUAGUGCUAAGGGGGCCUGGGAGUUUGGACUGGGCAGAGCUCAACACAGCGUGGCGAAGUGGCUGUGGCUAGACUGCCUCUCUAGAUUCCUCGUCACUCAGCAGGGCAUCUCUGAGAGAAGUGCC as the variant, how does the self-cleavage read?
A: The self-cleavage was 1.64.

Q: For UACGUAGGUGGUUUUCCCCUGAUAGUGCUAAGGGGGCCUGGGAGUUUGGACUGGGCAGAGCUCAACACAGCGUGGCGAAGUGGCUGUGGCUAGACUGCCUCUCUGGAUUCCUCGACACUCAGCAGGGCAUCUCUGAGAGAAAUGCC, which self-cleavage is on record?
A: Its self-cleavage is 1.91.

Q: Which self-cleavage does the source give for UACGUAGGUGGUUUUCCCCUGAUAGUGCUAAGGGGGCCUGGGAGUUUGGACUGGGCAGAGCUCAACACAGCGUGGCUAAGUGGCUGUGGCUAGACUGCCUCUCCGGAUUCCUCGUCACUCAGCAGGGCAUCUCUGAGAGAAAUGCC here?
A: Its self-cleavage is 1.68.
